From article PMC4336329 (PLoS ONE, 2015)
About 2,200 (0.71%) of roughly 310,000 compounds showed an effect of 50% or more. The effect is printed as a negative number. Some of the results follow.

These compounds were tested against human ether-à-go-go-related gene (hERG) potassium channel (human, UniProt Q12809) (assay: primary screen, population patch clamp on CHO cells stably expressing hERG).
Chain of human ether-à-go-go-related gene (hERG) potassium channel (Q12809 whole entry, looked up): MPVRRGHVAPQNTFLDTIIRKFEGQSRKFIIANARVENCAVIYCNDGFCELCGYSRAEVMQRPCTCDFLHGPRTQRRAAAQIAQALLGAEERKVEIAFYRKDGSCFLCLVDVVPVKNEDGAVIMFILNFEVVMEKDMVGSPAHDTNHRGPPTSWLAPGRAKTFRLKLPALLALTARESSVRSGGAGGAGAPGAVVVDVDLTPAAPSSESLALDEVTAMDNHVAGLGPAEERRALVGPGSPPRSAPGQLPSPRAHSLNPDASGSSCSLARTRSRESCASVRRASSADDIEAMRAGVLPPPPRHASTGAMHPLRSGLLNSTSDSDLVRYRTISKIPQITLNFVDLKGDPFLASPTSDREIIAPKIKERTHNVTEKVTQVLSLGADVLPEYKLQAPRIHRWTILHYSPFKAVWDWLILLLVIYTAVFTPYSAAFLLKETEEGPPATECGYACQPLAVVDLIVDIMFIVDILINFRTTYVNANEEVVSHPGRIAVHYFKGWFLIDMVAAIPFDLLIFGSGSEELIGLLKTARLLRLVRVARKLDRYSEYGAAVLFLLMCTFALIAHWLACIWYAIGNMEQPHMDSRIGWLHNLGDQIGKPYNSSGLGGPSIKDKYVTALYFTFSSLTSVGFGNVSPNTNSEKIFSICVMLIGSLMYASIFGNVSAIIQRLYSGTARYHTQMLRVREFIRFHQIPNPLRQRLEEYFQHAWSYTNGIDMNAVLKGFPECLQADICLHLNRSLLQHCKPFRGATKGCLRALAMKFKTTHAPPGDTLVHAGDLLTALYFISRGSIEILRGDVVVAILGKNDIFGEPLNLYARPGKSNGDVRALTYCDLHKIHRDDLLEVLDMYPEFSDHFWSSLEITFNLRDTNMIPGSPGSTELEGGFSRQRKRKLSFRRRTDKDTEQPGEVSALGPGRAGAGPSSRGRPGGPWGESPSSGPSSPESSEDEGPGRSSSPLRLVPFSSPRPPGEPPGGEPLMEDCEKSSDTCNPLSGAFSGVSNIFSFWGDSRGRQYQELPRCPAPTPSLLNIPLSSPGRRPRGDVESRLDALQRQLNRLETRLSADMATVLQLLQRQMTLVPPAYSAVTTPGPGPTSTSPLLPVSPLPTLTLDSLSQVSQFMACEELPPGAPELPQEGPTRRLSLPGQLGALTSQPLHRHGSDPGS

Structure (SMILES)	hERG current change (%, negative = inhibition) at 1uM
O=C1c2ccccc2S(=O)(=O)N1CC1CC(c2ccccc2)=NO1 (stereo not drawn)	13.7%
CCOC(=O)N1CCN(C(=O)c2cc3c(=O)n(C)c4ccccc4c3n2C)CC1	2.29%
COc1ccc(/C=c2\sc3nc(-c4ccccc4)c(-c4ccccc4)n3c2=O)cc1OC	12.3%
Nc1nc2ccccc2n1Cc1ccc(Cl)c(Cl)c1	5.95%
CCOc1[nH]n(-c2ccccc2)c(=O)c1C=NCc1cccnc1	-10.5%
FC(F)(F)c1nnc2ccc(NCc3ccccc3)nn12	7.88%
CCSc1nc2sc3c(c2c(=O)n1-c1ccccc1C)CCN(C)C3	13.8%
Cn1c(C(=O)O)cc2c(=O)n3ccccc3nc21	17.2%
Cn1nc(C(=O)NCc2ccccc2Cl)c2c1-c1ccccc1S(=O)(=O)C2	17.3%
CN1CCN(Cc2nc(N)nc(Nc3ccc4c(c3)OCCO4)n2)CC1	3.07%
Cc1ccc(O)c(/C=N/NC(=O)CN2CCCC2)c1	15.3%
CCOC(=O)CSc1nc2cc(C(=O)N3CCC(C(N)=O)CC3)ccc2c(=O)n1-c1ccccc1	-6.2%
CSCCC(=O)N1CCC(n2nccc2NC(=O)c2ccc3c(c2)OCO3)CC1	17.7%
CC(Oc1ccccc1)C(=O)Nc1nc2c(s1)C(=O)CC(C)(C)C2 (stereo not drawn)	16.4%
COc1ccccc1NC(=S)N1CCN(c2cccc(C)c2C)CC1	9.2%
Cc1ccc(NS(=O)(=O)c2ccc(C(=O)N3CCN(S(=O)(=O)c4ccccc4)CC3)cc2)cc1	3.25%
CN(C)C(=O)c1c(NC(=O)c2ccccc2)sc2c1CCC2	12.9%
CCc1ccccc1NC(=O)CSc1nnc([C@@H]2CCCN2C(=O)OC(C)(C)C)o1	-5.77%
COc1ccccc1-c1coc2c(CN3CCN(CCO)CC3)c(O)ccc2c1=O	11%
CCC(Sc1nc(N)cc(=O)[nH]1)C(=O)NC(C(=O)OC)c1ccccc1 (stereo not drawn)	1.66%
CCCOc1ccc(C(=O)Nn2c(C)nc3ccccc3c2=O)cc1	12.5%
O=C(CSc1ccc2nnc(-c3ccccn3)n2n1)N1CCN(c2ccccc2)CC1	-89.9%
Cc1ccsc1C(=O)N1CCCC(CCC(=O)NCc2ccccc2F)C1 (stereo not drawn)	0.269%

Structure (SMILES)	hERG current change (%, negative = inhibition) at 1uM
CC(/C=N/NC(=O)c1nnn(-c2nonc2N)c1CN1CCCCC1)=C\c1ccccc1	12.5%
O=S(=O)(NCc1ccccc1)c1ccc(S(=O)(=O)N2CCCC2)cc1	5.51%
Cc1nc(SCC(=O)NC2CCCCC2)[nH]c(=O)c1C	9.01%
C#CC1CCCCC1NC(=O)Nc1cnccc1C(F)(F)F (stereo not drawn)	14.4%
CCOC(=O)c1cc(C)n(CCCN2CCOCC2)c1C	11.3%
COc1ccc(C2C(C(=O)c3sc(C)nc3C)=C(O)C(=O)N2CCN(C)C)cc1 (stereo not drawn)	7.77%
CCC12C(=O)C(CC)(C(c3ccccc3)=C1c1ccccc1)[C@@H]1C(=O)N(c3ccc(C)cc3)C(=O)C12 (stereo partly drawn)	17.2%
OCCOCCNc1ncnc2nc[nH]c12	12.7%
COC(=O)C(NC(=O)c1ccc(C)cc1)(Nc1cccc(C)n1)C(F)(F)F (stereo not drawn)	-8.35%
COC(=O)c1ccccc1S(=O)(=O)C(C)(C)C	8.06%
Cc1ccc(C2(CCNS(=O)(=O)c3ccc(C)cc3)CCOC(C(C)C)C2)cc1 (stereo not drawn)	9.3%
O=C(O)C(=O)O.O=[N+]([O-])c1ccccc1S(=O)(=O)N1CCN(Cc2ccsc2)CC1	-0.882%
C=CCSc1nn2c(=O)c3ccccc3nc2s1	-5.13%
C=CCN(C(=O)c1csnn1)C(C(=O)NC1CCCCC1)c1ccccc1F (stereo not drawn)	12.2%
COc1cc(OC)c2c(c1O)OC(c1ccccc1)CC2=O (stereo not drawn)	19.4%
COc1ccc(N2C(=O)CSC2c2ccc(F)c(F)c2)cc1 (stereo not drawn)	18.4%
Cc1ccccc1NC(=O)C1(NC(=O)c2cccc(N3C(=O)CSC3c3ccccc3)c2)CCCCC1 (stereo not drawn)	13%
C[C@H]1CCC[C@]2(CC(=O)c3cc(F)ccc3O2)C1	-0.218%
CCCCCCn1c(CN2CCCC(C)C2)nc2c1c(=O)n(C)c(=O)n2C (stereo not drawn)	-26.4%
CCN=C(NCC)SC1CC(=O)N(CCc2ccccc2)C1=O (stereo not drawn)	18.4%
CCOC(=O)C1=C(COC(=O)/C=C/c2ccco2)NC(=O)NC1C (stereo not drawn)	19.5%
COc1ccc(C(=O)Oc2cccnc2)cc1OC	2.08%
Cc1cc(OCC(=O)N2CCN(c3ccccn3)CC2)cc(C)c1Br	5.12%

Structure (SMILES)	hERG current change (%, negative = inhibition) at 1uM
Cc1ccnn1CC(=O)N/N=C/c1ccc([N+](=O)[O-])s1	2.8%
COc1ccc(C2NCc3ccc4c(c3-n3cccc32)OCO4)cc1OC.Cl (stereo not drawn)	2.37%
COc1ccc(OC)c(S(=O)(=O)n2ccnc2C)c1	9.58%
CCc1c(-c2n[nH]c(=S)n2Cc2ccccc2)csc1C	9.85%
Cc1cc(/C=C2\C(=O)NC(=O)N(c3ccc(Br)cc3)C2=O)c(C)n1C	2.27%
Cc1nc(-c2ccccc2)sc1C(=O)NN	17.2%
O=C(Nc1ccc([N+](=O)[O-])cc1)N1CCN(C(=O)C2CCCO2)CC1 (stereo not drawn)	10.8%
CCC1(CC)NC(=O)N(CC(=O)N2CCN(c3ccccc3F)CC2)C1=O	13.4%
COc1cc2c(cc1OC)C(C)N(C(=O)c1ccc(Br)o1)CC2 (stereo not drawn)	14.1%
CCOC(=O)C1=C(C)OC(N)=C(C#N)C1c1cc2cc(C)ccc2nc1N1CCCCC1 (stereo not drawn)	10.8%
COc1cc(SC)ccc1C(=O)N1CC(C)OC(C)C1 (stereo not drawn)	27.1%
CC(C)=CCc1c(O)ccc(C2COc3c(CC=C(C)C)c(O)cc(O)c3C2=O)c1O (stereo not drawn)	15.1%
O=C(CSc1nnnn1-c1cccc2ccccc12)Nc1ccc(N2CCOCC2)c(Cl)c1	3.54%
Cc1c(Br)c(C(F)(F)F)nn1CC(=O)NCCCn1ccnc1	-1.72%
CC(C)Cn1c(-c2ccc(C#N)cc2)nc2c1c(=O)[nH]c(=O)n2CC(C)C	2.59%
CN(c1ccccc1C(=O)NCC1CCCO1)S(C)(=O)=O (stereo not drawn)	9.73%
Fc1cccc(Cc2noc(CN3CCCN(C4Cc5ccccc5C4)CC3)n2)c1	-86.9%
Cc1ccc(C(=O)Nc2cccc(C(=O)NC3CCCCC3)c2)cc1	10.2%
COc1cc(C2SCC(=O)N2CCCN(C)C)cc(OC)c1OC.Cl (stereo not drawn)	13.1%
CCCCNC(=O)CC1C(=O)N(Cc2ccccc2)C(C)c2nc3ccccc3n21 (stereo not drawn)	6.07%
N=c1c(C(=O)NCCN2CCOCC2)cc2c(=O)n3ccccc3nc2n1CCc1ccccc1	-33.1%
COC(=O)c1cccc(NC(=O)/C=C/c2ccc3c(c2)OCO3)c1	1.54%
COc1ccc(NC(=O)c2ccc(OC)cc2)cc1	0.831%

Structure (SMILES)	hERG current change (%, negative = inhibition) at 1uM
CC(C)N=C(NS(=O)(=O)c1ccccc1)C(Cl)(Cl)Cl	2.91%
CN1CCN(CC(=O)Nc2nnc(-c3cccs3)s2)CC1	4.05%
CN1C(=C2C(=O)OC(C)(C)OC2=O)Sc2ccccc21	10.9%
O=C(CSCc1ccccc1)Nc1cccc(F)c1	10.5%
COc1ccc(OCC2CNC(=O)O2)cc1 (stereo not drawn)	4.78%
COCCNc1ccc(-c2n[nH]c(=O)c3ccccc23)cc1[N+](=O)[O-]	12.3%
CCOC(=O)C1(CCOc2ccccc2)CCN(CC(O)CO)CC1 (stereo not drawn)	1.95%
Cc1ccc(Cl)cc1-c1ccc(/C=N/n2cnnc2)o1	-2.37%
CCOC(=O)c1ccc(S(=O)(=O)NC2CC2)cc1	10.1%
N#Cc1ccc(-c2ccc(C3Nc4ccccc4C(=O)N3O)o2)cc1 (stereo not drawn)	6.27%
N#C/C(=C\Nc1ccccc1SC(F)(F)F)c1nc(-c2ccc(Cl)cc2)cs1	9.96%
COc1ccc(C2c3ccc(O)cc3Oc3ncn(CCN4CCOCC4)c(=N)c32)cc1 (stereo not drawn)	-2.19%
Cn1ccsc1=NC(=O)c1ccc(Cl)cc1	-6.2%
COC(=O)c1c(NC(=O)C2C3CCC(O3)C2C(=O)O)sc2c1CCCCCC2 (stereo not drawn)	1.6%
NC1=C(c2ccc([N+](=O)[O-])cc2)C(=O)CO1	8.03%
CCOc1cc(NC(=O)C2CCCO2)c(OCC)cc1NC(=O)C1CC1 (stereo not drawn)	-2.85%
CC(C)c1cccc(C2=CC(=O)C[C@H](c3ccc(F)cc3)C2)c1	13.7%
COC(=O)c1ccc(NC(=O)c2cccc(OC)c2)cc1	7.39%
COc1ccc(OCC(O)CN2CCC(CN3C(=O)c4cccc5cccc(c45)C3=O)CC2)cc1.Cl (stereo not drawn)	-19.4%
CCOc1cc(/C=N/NC(=O)c2cc(C3CC3)[nH]n2)ccc1O	7.24%
COc1ccccc1N1C(=O)CC(N2CCN(c3ccc([N+](=O)[O-])cc3)CC2)C1=O (stereo not drawn)	-16.3%
